Experimental data as given in PMC4336329 (PLoS ONE, 2015).
Among all 310,000 compounds or so, about 2,200 (0.71%) showed an effect of 50% or more. Effects have a minus sign here. The list shows a part of the results.

Target: human ether-à-go-go-related gene (hERG) potassium channel (human, UniProt Q12809)
Experiment: primary screen, population patch clamp on CHO cells stably expressing hERG

human ether-à-go-go-related gene (hERG) potassium channel, sequence (Q12809 whole entry, looked up): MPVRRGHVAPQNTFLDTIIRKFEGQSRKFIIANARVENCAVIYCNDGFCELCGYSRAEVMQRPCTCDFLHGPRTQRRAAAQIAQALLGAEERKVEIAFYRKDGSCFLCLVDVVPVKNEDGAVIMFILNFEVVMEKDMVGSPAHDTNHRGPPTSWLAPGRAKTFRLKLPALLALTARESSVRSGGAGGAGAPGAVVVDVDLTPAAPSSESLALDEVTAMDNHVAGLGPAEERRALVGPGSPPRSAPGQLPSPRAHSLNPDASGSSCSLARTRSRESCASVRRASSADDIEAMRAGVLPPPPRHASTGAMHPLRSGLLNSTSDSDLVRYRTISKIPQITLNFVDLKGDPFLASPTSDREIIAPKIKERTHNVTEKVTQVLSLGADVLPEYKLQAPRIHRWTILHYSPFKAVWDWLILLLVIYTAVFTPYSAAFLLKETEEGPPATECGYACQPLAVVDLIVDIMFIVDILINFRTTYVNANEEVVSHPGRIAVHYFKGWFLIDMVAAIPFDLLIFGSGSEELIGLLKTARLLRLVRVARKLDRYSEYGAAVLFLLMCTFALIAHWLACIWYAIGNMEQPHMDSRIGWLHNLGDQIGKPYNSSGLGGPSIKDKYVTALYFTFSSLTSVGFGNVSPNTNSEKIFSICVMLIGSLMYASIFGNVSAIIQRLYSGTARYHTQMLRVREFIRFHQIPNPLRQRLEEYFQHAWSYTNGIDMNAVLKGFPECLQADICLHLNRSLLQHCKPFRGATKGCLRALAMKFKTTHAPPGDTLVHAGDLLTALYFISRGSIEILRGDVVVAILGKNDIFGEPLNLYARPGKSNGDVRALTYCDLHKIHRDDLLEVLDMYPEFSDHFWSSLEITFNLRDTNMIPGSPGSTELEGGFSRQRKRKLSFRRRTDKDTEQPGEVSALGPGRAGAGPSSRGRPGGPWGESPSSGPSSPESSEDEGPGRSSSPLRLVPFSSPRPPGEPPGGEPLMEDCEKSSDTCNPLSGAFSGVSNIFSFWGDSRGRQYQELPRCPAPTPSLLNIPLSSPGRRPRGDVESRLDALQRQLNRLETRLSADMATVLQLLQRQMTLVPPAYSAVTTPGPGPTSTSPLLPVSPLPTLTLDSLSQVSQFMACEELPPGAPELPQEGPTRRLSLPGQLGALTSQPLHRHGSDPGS

Compound	hERG current change (%, negative = inhibition) at 1uM [%]
CCN(c1ccccc1)c1cc(C)nc2nc(C)nn12	9.63
CSc1ccc(Cl)c(C(=O)NCC(C)C)c1	16.1
CCOC(=O)C1(CC2CCCCO2)CCN(C(=O)Nc2ccc(C(=O)OC)cc2)CC1 (centres unmarked)	6.97
CCCn1c(N)c(N(CCOC)C(=O)c2ccc(N(C)S(=O)(=O)c3ccc(C)cc3)cc2)c(=O)[nH]c1=O	5.23
COc1ccc(CNc2nc3nc(-c4ccccc4)cc(=O)n3[nH]2)cc1OC	-12.9
O=C(O)c1ccc2c(c1)C1C=CCC1C(c1cc3c(cc1Br)OCO3)N2 (centres unmarked)	15
COc1ccccc1CCCNC(=O)C1CCC(=O)N(Cc2ccccc2F)C1 (centres unmarked)	5.57
CCc1nnc(SCC(=O)NC2CCCCC2)nc1CC	-10.6
Cc1ccc(S(=O)(=O)NCCC(c2ccc(F)cc2)c2ccco2)cc1 (centres unmarked)	16.1
COc1ccc(N2CC(C(=O)Nc3nnc(SCC(=O)NC4CCCC4)s3)CC2=O)cc1 (centres unmarked)	15.8
O=C1/C(=C/c2cccc([N+](=O)[O-])c2)CSc2ccc(Cl)cc21	13.6
CCCCC(=O)Nc1cccc(NC(=O)c2cccnc2Cl)c1	6.85
COc1ccc(N2CCN(S(=O)(=O)CCNC(=O)C(C)Oc3ccccc3)CC2)cc1 (centres unmarked)	7.29
COC(=O)C1CCN(C(=O)CCC2CCCCC2)CC1	15.2
O=C(CCSc1ccc(Cl)c(Cl)c1)NC12CC3CC(CC(C3)C1)C2	9.66
CCc1cc(C(=O)N(C)CC(=O)Nc2c(Cl)cccc2Cl)sc1C	9.86
Cc1cc(C)cc(NC(=O)C2C3C=CC4(O3)C2C(=O)N(CCCN(C)C)C4C(=O)NC2CCCC(C)C2C)c1 (centres unmarked)	15.2
Cc1ccc(S(=O)(=O)N2CC=C(c3ccc(F)cc3)CC2)cc1	-5.65
Cc1ccc2c(CN3CCCCC3)cc(=O)oc2c1C	-1.56
COc1ccc2c(c1)CC[C@@H]1[C@@H]2CC[C@]2(C)[C@@H](C(C)=O)C[C@@H]12	5.61
O=C(O)c1ccc(N(Cc2ccccc2)S(=O)(=O)c2ccccc2)cc1	7.52
COc1ccc2nc(N3CCCC(O)C3)c(C#N)cc2c1 (centres unmarked)	7.22

Compound	hERG current change (%, negative = inhibition) at 1uM [%]
COc1ccc(C2=CC(=O)CC(C)(C)C2)cc1OC	3.16
NC(=O)NCc1ccc(C(=O)OCc2ccncc2)cc1	9.01
COc1ccc2oc(C(=O)OCC(=O)Nc3ccccc3)c(C)c2c1	8
COc1cccc(N2CCN(c3nc(C)cc(C)c3C#N)CC2)c1	10.4
Cc1ccc(S(=O)(=O)Cn2nnnc2CN2CCOCC2)cc1	12.3
Cc1cc(C#N)c(C)c(SCc2[nH]nc3c2C(c2ccccc2)C(C#N)=C(N)O3)n1 (centres unmarked)	6.23
CCNc1nc(Oc2ccc(=O)[nH]n2)nc(SC)n1	5.38
COc1ccc(OC)c(S(=O)(=O)Nc2cccc(C(C)=O)c2)c1	7.6
O=C(O)CC(c1ccc(Cl)cc1)N1C(=O)CCC1=O (centres unmarked)	2.56
Cc1ccc(C(=O)NC(=S)Nc2ccccc2C(F)(F)F)cc1	11.6
O=c1c2ccccc2ncn1-c1ccc(Cl)c(Cl)c1	6.33
COc1ccc(OC)c(N(CC(=O)NC2CC2)S(=O)(=O)c2ccc(C)cc2)c1	9.31
CCC1C(O)=C(c2ccccn2)C(=N)N1c1ccccc1 (centres unmarked)	7.84
COC(=O)c1cc(S(=O)(=O)NCC2CCN(Cc3ccccc3F)CC2)c[nH]1	5.39
COc1cccc(-c2coc3cc4oc(=O)c(CCC(=O)O)c(C)c4cc23)c1	6.77
CN(C(=O)CSc1nnc(Cc2cccc3ccccc23)n1N)C1CCS(=O)(=O)C1 (centres unmarked)	16
CC1=C(C(=O)OC(C)C)C(c2cccs2)N2C(=O)C(C)SC2=N1 (centres unmarked)	16.1
CCOC(=O)c1c(S(=O)(=O)NCC(=O)Nc2cc(C)ccc2C)c(C)n(C)c1C	10.1
Oc1ccccc1/C=N/n1c(COc2ccccc2)n[nH]c1=S	13.7
C=CCSc1nnc2c(n1)OC=Nc1ccc(Br)cc1-2	1.61
CCC1(C(=O)OC)NC(c2cccc(F)c2)C2C(=O)N(C)C(=O)C21 (centres unmarked)	22.6
CCCCn1c(N)c(N(CCOC)C(=O)c2cc3c(s2)CCC3)c(=O)[nH]c1=O	4.48
